Results taken from the antibiotic and cytotoxicity screens of Wong et al. (2023).
The list shows a part of the results.

Experiments:
HSkMC = human skeletal muscle cells; experiment: cytotoxicity call (relative viability < 0.9); details: 10 µM
S. aureus RN4220 = experiment: growth inhibition call (relative growth <= 0.2); details: 50 µM

| Structure (SMILES) | cytotoxicity call (HSkMC) | growth inhibition call (S. aureus RN4220) |
| --- | --- | --- |
| Cc1ccc(OC[C@@H](O)CN)c(C)c1 | inactive | inactive |
| COc1cccc(S(=O)(=O)Nc2ccc3c(c2)[C@@H]2C[C@@H](CC(=O)NCc4ccccc4F)O[C@H](CO)[C@@H]2O3)c1 | inactive | inactive |
| O=C(O)C[C@H]1CC[C@@H]2[C@H](COC[C@@H](O)CN2S(=O)(=O)c2ccc(F)cc2)O1 | inactive | inactive |
| Cc1noc(C)c1S(=O)(=O)Nc1ccc2c(c1)C(=O)N([C@H](C)CO)C[C@H](C)[C@@H](CN(C)Cc1ccc(Cl)c(Cl)c1)OCCCC[C@@H](C)O2 | inactive | inactive |
| O=C1NC(=O)/C(=C\c2ccccc2)N1 | inactive | inactive |
| O=C(Nc1ccno1)N1CCOCC1 | inactive | inactive |
| C[C@@H]1CN([C@@H](C)CO)C(=O)Cc2cc(NC(=O)NC3CCCCC3)ccc2O[C@@H]1CN(C)Cc1ccc(-c2ccccc2)cc1 | inactive | inactive |
| Cc1cc(C(=O)N2CCCC[C@@H]2CCOc2cccc(CN(C)Cc3cccc4cccnc34)c2)c(=O)[nH]c1C | inactive | inactive |
| Cc1noc(C)c1NC(=O)Nc1ccc2c(c1)C(=O)N([C@H](C)CO)C[C@@H](C)[C@H](CN(C)Cc1ccccc1)OCCCC[C@H](C)O2 | inactive | inactive |
| C=CC[C@@H](CC(=O)N(CCO)Cc1ccccc1)C(=O)N[C@H](COC(=O)[C@@H](CC=C)CC(=O)OC(C)(C)C)Cc1c[nH]c2ccccc12 | inactive | inactive |
| COc1ccc(S(=O)(=O)Nc2ccc3c(c2)CC(=O)N([C@H](C)CO)C[C@H](C)[C@H](CN(C)S(=O)(=O)c2ccc(C)cc2)O3)cc1 | inactive | inactive |
| C[C@@H]1CCCCO[C@@H](CN(C)S(C)(=O)=O)[C@H](C)CN([C@@H](C)CO)C(=O)c2cc(NC(=O)Nc3ccc(C(F)(F)F)cc3)ccc2O1 | inactive | inactive |
| C[C@H](CO)N1C[C@H](C)[C@H](CN(C)S(=O)(=O)c2ccc3c(c2)OCCCO3)OCc2cn(nn2)CCCC1=O | inactive | inactive |
| CC(=O)N[C@@H]1[C@@H](OCCOc2ccc(Cl)cc2C)O[C@H](CO)[C@H](O)[C@@H]1O | inactive | inactive |
| CC1(C)OC2CC3C4CC(F)C5=CC(=O)C=CC5(C)C4C(O)CC3(C)C2(C(=O)CO)O1 (stereo not given) | inactive | inactive |
| C[C@@H]1CN([C@H](C)CO)C(=O)c2cc(NC(=O)Nc3ccc(F)cc3)ccc2O[C@@H]1CN(C)CC1CCCCC1 | inactive | inactive |
| COCC#Cc1cnc2c(c1)C(=O)N([C@@H](C)CO)C[C@@H](C)[C@H](CN(C)C(=O)CCN1CCCCC1)O2 | inactive | inactive |
| C[C@@H]1CCCCO[C@@H](CN(C)C)[C@H](C)CN([C@H](C)CO)C(=O)c2cc(NC(=O)Nc3ccc(C(F)(F)F)cc3)ccc2O1 | inactive | inactive |

| Structure (SMILES) | cytotoxicity call (HSkMC) | growth inhibition call (S. aureus RN4220) |
| --- | --- | --- |
| C[C@@H]1CCCCO[C@H](CN(C)Cc2ccc(Cl)c(Cl)c2)[C@H](C)CN([C@@H](C)CO)C(=O)c2cc(NC(=O)C3CCCCC3)ccc2O1 | inactive | inactive |
| COc1ccc(NC(C)=S)cc1C | inactive | inactive |
| Cc1ccc(S(=O)(=O)Nc2ccc3c(c2)C(=O)N([C@@H](C)CO)C[C@@H](C)[C@H](CN(C)C(=O)Cc2ccccc2)OCCCC[C@H](C)O3)cc1 | inactive | inactive |
| COc1ccc(C(=O)c2ccccc2)c(O)c1 | inactive | inactive |
| Cn1c(=O)c2[nH]c(Br)nc2n(C)c1=O | inactive | inactive |
| Cc1nn(C)cc1NC(=O)C[C@H]1CC[C@H]2[C@@H](COc3ccc(NC(=O)C4CCOCC4)cc3C(=O)N2C)O1 | inactive | inactive |
| C[C@@H]1CN([C@H](C)CO)C(=O)c2cccc(NC(=O)c3nc4ccccc4s3)c2O[C@@H]1CN(C)C(=O)Nc1ccc(C(F)(F)F)cc1 | inactive | inactive |
| C[C@@H]1CN([C@@H](C)CO)C(=O)c2cc(NC(=O)c3ccncc3)ccc2O[C@@H]1CN(C)Cc1ccc(-c2ccccc2)cc1 | inactive | inactive |
| C[C@@H]1CN([C@@H](C)CO)C(=O)c2cc(NC(=O)CCCN(C)C)ccc2O[C@@H]1CN(C)Cc1ccccc1 | inactive | inactive |
| O=C(C[C@H]1CC=CC[C@H](Cc2ccc(F)cc2)C(=O)OC[C@@H](Cc2c[nH]c3ccccc23)NC1=O)NCCO | inactive | inactive |
| C[C@H](CO)N1C[C@H](C)[C@H](CN(C)Cc2ccccc2)Oc2ncc(-c3cccc(C(F)(F)F)c3)cc2C1=O | inactive | inactive |
| CO[C@@H]1CN(C)C(=O)c2ccc(NC(=O)C3CC3)cc2OC[C@@H](C)N(C(=O)C2CCOCC2)C[C@H]1C | inactive | inactive |
| N#CCSc1n[nH]c(=O)[nH]c1=O | inactive | inactive |
| C[C@@H]1CN([C@H](C)CO)C(=O)Cc2cc(NC(=O)C3CCCCC3)ccc2O[C@@H]1CN(C)Cc1ccc(Oc2ccccc2)cc1 | active | inactive |
| COc1ccc(Br)cc1S(=O)(=O)NC(=O)/C=C/c1ccccc1Cc1ccc2ccccc2c1 | inactive | inactive |
| CC(C)NC(=O)N(C)C[C@H]1Oc2ccc(NC(=O)CCC(F)(F)F)cc2C(=O)N([C@H](C)CO)C[C@H]1C | inactive | inactive |
| Nc1ncn(C(=O)c2ccccc2)n1 | inactive | inactive |
